{"source": "PubChem BioAssay (EPA / NIEHS)", "key": {"[1]": {"read-out": "Matrix Metallopeptidase 1 (MMP1), MMP1 (gene 4312)", "assay": "BSK_BE3C_MMP1: BioMAP Diversity Plus: BE3C Assay for Matrix Metallopeptidase 1 (MMP1) Biomarker Activity (AID 2283024)", "details": "actives raise or lower the signal; primary human bronchial epithelial cells", "method_in_brief": "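Human bronchial epithelial cells (BE3C system) exposed to compound for 24 h; MMP1 then quantified by ELISA. Activity was fitted in both directions relative to DMSO.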"}, "[2]": {"target": "rat Adrenergic Receptor, Beta (Adrb), Non-selective Binding, Adrb1 (gene 24925) (UniProt P18090)", "sequence (P18090 whole entry, looked up)": "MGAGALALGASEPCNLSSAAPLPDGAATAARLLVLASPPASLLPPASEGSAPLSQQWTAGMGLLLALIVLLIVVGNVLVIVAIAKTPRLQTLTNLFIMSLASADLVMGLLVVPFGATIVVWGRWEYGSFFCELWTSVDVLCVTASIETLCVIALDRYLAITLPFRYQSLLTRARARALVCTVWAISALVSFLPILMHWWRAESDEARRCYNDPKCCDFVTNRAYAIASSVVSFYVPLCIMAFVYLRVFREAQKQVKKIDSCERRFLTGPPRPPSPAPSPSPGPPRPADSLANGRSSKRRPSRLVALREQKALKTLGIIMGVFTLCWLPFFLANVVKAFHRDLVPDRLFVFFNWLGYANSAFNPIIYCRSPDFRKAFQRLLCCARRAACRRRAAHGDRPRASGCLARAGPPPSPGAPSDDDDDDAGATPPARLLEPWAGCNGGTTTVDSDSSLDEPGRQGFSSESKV", "assay": "NVS_GPCR_rAdrb_NonSelective: NovaScreen (NVS) G Protein-Coupled Receptor Assay for rat Adrenergic Receptor, Beta (Adrb), Non-selective Binding (AID 2283298; active means hit-call score of the fitted dose curve at least 0.9, where 1 is the maximum)", "method_in_brief": "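Non-selective beta-adrenergic radioligand binding in rat cortical membranes, 1 h incubation, filter-based scintillation read-out. Primary screen 25 uM in duplicate; hits retested in concentration-response up to 50 uM, DMSO baseline.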"}, "[3]": {"read-out": "Peroxisomal acyl-coenzyme A oxidase 1 (ACOX1) gene, ACOX1 (gene 51)", "assay": "LTEA_HepaRG_ACOX1: Life Technologies and Expression Analysis (LTEA) Assay for Peroxisomal acyl-coenzyme A oxidase 1 (ACOX1) gene using HepaRG (AID 2283467)", "details": "actives raise or lower the signal; mRNA level, 48 h", "method_in_brief": "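Measured by qRT-PCR against three housekeeping genes: ACOX1 transcript change in human HepaRG cells after 48 h dosing. Concentrations ran up to 100 uM in half-log steps. Curves were fitted bidirectionally relative to 0.5% DMSO.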"}, "[4]": {"read-out": "Heat shock 70 kDa protein 1 (HSPA1A), gene 3303", "assay": "LTEA_HepaRG_HSPA1A: Life Technologies and Expression Analysis (LTEA) Assay for Heat shock 70 kDa protein 1 (HSPA1A) using HepaRG (AID 2283502)", "details": "actives raise or lower the signal; mRNA level, 48 h", "method_in_brief": "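Readout is HSPA1A transcript level by microfluidic qRT-PCR, normalized to three housekeeping genes and analysed for gain or loss of signal relative to 0.5% DMSO. Human HepaRG cultures received test chemicals for 48 h at up to 100 uM.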"}, "[5]": {"read-out": "Interleukin-10 (IL10), IL10 (gene 3586)", "assay": "BSK_IMphg_IL10: BioMAP Diversity Plus: IMphg Assay for Interleukin-10 (IL10) Biomarker Activity (AID 2284294)", "details": "primary human endothelial cells with macrophages", "method_in_brief": "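Human venular endothelial cells cocultured with macrophages, dosed 24 h; IL-10 measured by ELISA, activity relative to DMSO. Cytotoxicity assessed in parallel cultures by sulforhodamine B total-protein staining.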"}, "[6]": {"read-out": "Thrombomodulin, THBD (gene 7056)", "assay": "BSK_3C_Thrombomodulin: BioMAP Diversity Plus: 3C Assay for Thrombomodulin Biomarker Activity (AID 2283029)", "details": "actives raise or lower the signal; primary human endothelial cells (HUVEC)", "method_in_brief": "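Read-out is ELISA of thrombomodulin on human umbilical vein endothelium 24 h after chemical dosing. Gain or loss of signal is scored relative to DMSO. Overt cytotoxicity is checked in parallel cultures by sulforhodamine B staining.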"}, "[7]": {"assay": "BSK_BT_Bcell_Proliferation: Viability Assessment in the BioMAP Diversity Plus: BT Assay for B cell Proliferation (AID 2284227)", "details": "primary human B cells with PBMC", "method_in_brief": "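Human B cells co-cultured with PBMC were dosed with test chemicals and relative cell number was quantified by SRB staining at 72 h. Cells were fixed in 10% TCA, stained with 0.1% SRB and read at 560 nm. Activity was fitted in the positive direction against DMSO.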"}, "[8]": {"target": "Estrogen receptor (Homo sapiens) (UniProt P03372)", "sequence (P03372 whole entry, looked up, the tested form may be a part)": "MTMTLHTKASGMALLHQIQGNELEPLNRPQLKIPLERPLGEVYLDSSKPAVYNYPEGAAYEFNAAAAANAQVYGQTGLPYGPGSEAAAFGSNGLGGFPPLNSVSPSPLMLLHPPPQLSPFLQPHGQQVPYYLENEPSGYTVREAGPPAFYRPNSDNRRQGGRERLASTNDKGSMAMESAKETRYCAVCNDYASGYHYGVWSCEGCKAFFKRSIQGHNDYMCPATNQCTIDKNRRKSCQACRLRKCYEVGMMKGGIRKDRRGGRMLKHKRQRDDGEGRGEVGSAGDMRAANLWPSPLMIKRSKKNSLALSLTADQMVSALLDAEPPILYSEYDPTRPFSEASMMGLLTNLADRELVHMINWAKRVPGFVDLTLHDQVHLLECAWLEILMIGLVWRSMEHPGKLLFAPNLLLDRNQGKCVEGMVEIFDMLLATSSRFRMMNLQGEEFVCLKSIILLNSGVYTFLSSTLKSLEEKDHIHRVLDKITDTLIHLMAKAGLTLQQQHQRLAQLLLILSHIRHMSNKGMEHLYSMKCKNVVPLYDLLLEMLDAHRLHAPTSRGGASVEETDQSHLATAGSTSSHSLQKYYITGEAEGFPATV", "assay": "OT_ER_ERaERa_1440: Odyssey Thera (OT) 24-hour HEK293T Protein-Complementation Assay for Estrogen Receptor-alpha/-alpha Homodimer (AID 2283349; active means hit-call score of the fitted dose curve at least 0.9, where 1 is the maximum;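 further: hits raise fluorescence above DMSO for agonists and antagonists alike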)", "method_in_brief": "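Protein-fragment complementation between two human ERα ligand-binding domains (aa 310-547) in stably transfected HEK293T cells was monitored after 24 h treatment, using fluorescence intensity relative to vehicle controls.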"}, "[9]": {"target": "Nuclear receptor subfamily 1 group I member 2 (Homo sapiens) (UniProt O75469)", "sequence (O75469 whole entry, looked up)": "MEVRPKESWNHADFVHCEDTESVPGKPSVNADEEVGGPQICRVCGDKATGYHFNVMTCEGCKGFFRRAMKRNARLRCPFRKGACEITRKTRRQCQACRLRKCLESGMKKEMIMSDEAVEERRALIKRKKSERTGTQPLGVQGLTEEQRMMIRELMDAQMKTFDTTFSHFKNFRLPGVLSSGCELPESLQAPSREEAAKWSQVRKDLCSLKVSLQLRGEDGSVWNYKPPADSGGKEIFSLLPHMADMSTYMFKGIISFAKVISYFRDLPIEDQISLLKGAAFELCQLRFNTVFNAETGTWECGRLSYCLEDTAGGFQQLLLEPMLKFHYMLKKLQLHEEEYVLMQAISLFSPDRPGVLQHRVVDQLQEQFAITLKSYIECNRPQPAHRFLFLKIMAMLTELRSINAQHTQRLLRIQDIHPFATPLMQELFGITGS", "assay": "NVS_NR_hPXR: NovaScreen (NVS) Nuclear Receptor Binding Assay for human Pregnane X Receptor (PXR) (AID 2283365; active means hit-call score of the fitted dose curve at least 0.9, where 1 is the maximum;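 further: a drop in FRET signal versus DMSO baseline means the compound binds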)", "method_in_brief": "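Cell-free binding assay with extracted human PXR protein, read by TR-FRET 2 h after dosing; loss of signal relative to DMSO baseline indicates binding. Primary screen at 25 uM in duplicate, actives retested in concentration series.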"}, "[10]": {"target": "mouse Estrogen Receptor alpha (Era), Esr1 (gene 13982) (UniProt P19785)", "sequence (P19785 whole entry, looked up)": "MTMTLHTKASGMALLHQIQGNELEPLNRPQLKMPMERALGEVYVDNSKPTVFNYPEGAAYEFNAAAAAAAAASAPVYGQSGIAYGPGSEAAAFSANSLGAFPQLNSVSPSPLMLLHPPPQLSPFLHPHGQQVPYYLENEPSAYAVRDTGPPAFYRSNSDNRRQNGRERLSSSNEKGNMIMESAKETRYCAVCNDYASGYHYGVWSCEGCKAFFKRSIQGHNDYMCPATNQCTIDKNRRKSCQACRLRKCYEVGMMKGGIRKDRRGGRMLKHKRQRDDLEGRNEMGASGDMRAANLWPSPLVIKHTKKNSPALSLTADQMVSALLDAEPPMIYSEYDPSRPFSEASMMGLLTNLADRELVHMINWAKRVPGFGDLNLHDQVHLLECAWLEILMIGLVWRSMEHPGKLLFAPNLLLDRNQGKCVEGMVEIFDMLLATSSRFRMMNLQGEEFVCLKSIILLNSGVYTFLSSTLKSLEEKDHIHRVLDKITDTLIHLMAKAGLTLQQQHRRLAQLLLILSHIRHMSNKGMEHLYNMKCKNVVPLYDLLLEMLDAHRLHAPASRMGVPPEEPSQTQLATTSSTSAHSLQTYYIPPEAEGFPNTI", "assay": "NVS_NR_mERa: NovaScreen (NVS) Nuclear Receptor Binding Assay for mouse Estrogen Receptor alpha (Era) (AID 2283378; active means hit-call score of the fitted dose curve at least 0.9, where 1 is the maximum)", "method_in_brief": "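Cell-free radioligand binding with extracted mouse Era protein; competitive displacement of radiolabelled ligand, read by filter-based scintillation counting 18 hours after dosing. Loss of signal versus DMSO baseline taken as binding; single screening concentration 25 uM, actives followed in concentration series.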"}, "[11]": {"target": "Peroxisome proliferator-activated receptor gamma (Homo sapiens) (UniProt P37231)", "sequence (P37231 whole entry, looked up, the tested form may be a part)": "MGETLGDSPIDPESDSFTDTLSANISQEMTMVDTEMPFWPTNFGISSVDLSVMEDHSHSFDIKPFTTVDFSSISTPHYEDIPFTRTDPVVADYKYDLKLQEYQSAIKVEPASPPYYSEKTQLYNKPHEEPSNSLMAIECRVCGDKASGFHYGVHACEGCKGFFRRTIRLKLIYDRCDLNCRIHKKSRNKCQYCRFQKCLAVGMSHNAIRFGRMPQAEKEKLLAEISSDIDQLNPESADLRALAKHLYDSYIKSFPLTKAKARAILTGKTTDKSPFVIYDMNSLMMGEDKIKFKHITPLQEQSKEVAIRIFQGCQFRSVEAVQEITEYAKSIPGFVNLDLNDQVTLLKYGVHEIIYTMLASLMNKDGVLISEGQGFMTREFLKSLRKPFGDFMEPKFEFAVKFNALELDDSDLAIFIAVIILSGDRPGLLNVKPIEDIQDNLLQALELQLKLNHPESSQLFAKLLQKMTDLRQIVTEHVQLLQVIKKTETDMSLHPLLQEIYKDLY", "assay": "OT_PPARg_PPARgSRC1_1440: Odyssey Thera (OT) 24-hour Protein-Complementation Assay for Peroxisome Proliferator-activated Receptor Gamma/ SRC-1 Co-activator (AID 2283388; active means hit-call score of the fitted dose curve at least 0.9, where 1 is the maximum)", "method_in_brief": "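HEK293T cells transiently transfected with PPARg and SRC-1 fused via (Gly4Ser)2 linker to split Venus YFP fragments (IFP1/IFP2) were dosed 24 h; fixed, Draq5-stained, imaged at 488/635 nm; nuclear/cytoplasmic fluorescence ratio scored versus DMSO baseline, gain-of-signal.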"}, "DIO1 (gene 1733)": {"system": "DIO1 (gene 1733)", "assay": "CCTE_GLTED_hDIO1: CCTE's human Deiodinase 1 (DIO1) Inhibition Assay, Great Lakes Toxicology and Ecology Division (GLTED) Lab (AID 2283987; active means hit-call score of the fitted dose curve at least 0.9, where 1 is the maximum;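 further: isolated human DIO1 enzyme in a cell-free setup rather than cells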)", "method_in_brief": "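Cell-free human DIO1 enzyme was incubated with test chemical for 3 h, and iodide released from substrate was measured by Sandell-Kolthoff absorbance. Loss of signal versus DMSO baseline indicated inhibition; plates were run in triplicate.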"}, "[12]": {"read-out": "Matrix Metallopeptidase 1 (MMP1), MMP1 (gene 4312)", "assay": "BSK_MyoF_MMP1: BioMAP Diversity Plus: MyoF Assay for Matrix Metallopeptidase 1 (MMP1) Biomarker Activity (AID 2284268)", "details": "primary human lung fibroblasts", "method_in_brief": "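ELISA readout of MMP1 in primary human lung fibroblast cultures, 24 h post-dosing. Gain of signal versus DMSO vehicle control defines activity. Parallel SRB staining (0.1% after 10% TCA fixation, 560 nm) flags overt cytotoxicity.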"}, "[13]": {"read-out": "Interleukin-8 (IL8), CXCL8 (gene 3576)", "assay": "BSK_SAg_IL8: BioMAP Diversity Plus: SAg Assay for Interleukin-8 (IL8) Biomarker Activity (AID 2283094)", "details": "actives raise or lower the signal; primary human HUVEC with PBMC", "method_in_brief": "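ELISA read-out of IL-8 in a primary human vascular co-culture (umbilical vein endothelium plus PBMC), taken 24 h after compound addition. Values derive from bidirectional fits against DMSO negative controls.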"}, "CYP2C9 (gene 1559)": {"read-out": "CYP2C9 (gene 1559)", "assay": "LTEA_HepaRG_CYP2C9: Life Technologies and Expression Analysis (LTEA) Assay for CYP2C9 using HepaRG (AID 2283484)", "details": "actives raise or lower the signal; mRNA level, 48 h", "method_in_brief": "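Cells plated 48 h, switched to serum-free induction medium, then treated in duplicate for 48 h at eight concentrations (max 100 uM, 0.5% DMSO). RNA then analysed by qRT-PCR for CYP2C9; curves fitted in both directions relative to DMSO.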"}}, "note": "For some assays here: Shown are results outside the selection of hits, which stands elsewhere. Records with an inconclusive call do not appear. The entries are a selection whose mix differs from that of the whole data set. Some structures have more than one record in an assay (separate samples or runs), and their calls can disagree. Calls of active or inactive are those of the source. How the source made its calls, unless noted: active means hit-call score of the fitted dose curve at least 0.9, where 1 is the maximum; inactive means score below 0.9."}
{"smiles": "CN(Cc1cnc2nc(N)nc(N)c2n1)c1ccc(C(=O)N[C@@H](CCC(=O)O)C(=O)O)cc1", "values": [{"measurement": "outcome", "setting": "[1]", "value": "inactive"}, {"measurement": "outcome", "setting": "[2]", "value": "inactive"}, {"measurement": "outcome", "setting": "[3]", "value": "inactive"}, {"measurement": "outcome", "setting": "[4]", "value": "inactive"}, {"measurement": "outcome", "setting": "[5]", "value": "inactive"}]}
{"smiles": "c1ccc2sc(SSN3CCOCC3)nc2c1", "values": [{"measurement": "outcome", "setting": "[6]", "value": "inactive"}, {"measurement": "AC50", "setting": "[7]", "value": "active: 13.4 µM"}]}
{"smiles": "CCCCCCCCCCCCCC[N+](C)(C)C", "values": [{"measurement": "AC50", "setting": "[6]", "value": "active: 11.8 µM"}, {"measurement": "outcome", "setting": "[8]", "value": "inactive"}, {"measurement": "AC50", "setting": "[9]", "value": "active: 13.2 µM"}, {"measurement": "outcome", "setting": "[10]", "value": "inactive"}, {"measurement": "outcome", "setting": "[11]", "value": "inactive"}, {"measurement": "AC50", "setting": "DIO1 (gene 1733)", "value": "active: 34.4 µM"}, {"measurement": "AC50", "setting": "[12]", "value": "active: 11 µM"}]}
{"smiles": "CCCCC(CC)COC(=O)c1ccc(C(=O)OCC(CC)CCCC)cc1", "note": "(configuration not stated)", "values": [{"measurement": "outcome", "setting": "[1]", "value": "inactive"}, {"measurement": "outcome", "setting": "[13]", "value": "inactive"}, {"measurement": "outcome", "setting": "CYP2C9 (gene 1559)", "value": "inactive"}]}
